Data taken from PubChem BioAssay (Tox21).
Several values for one entry are separate records, joined by “and”; a condition that tells them apart may be missing. Identical values can stand only once. The inconclusive results got no clear call from the source; some entries with a clear call stand among them for comparison. A potency beside an inconclusive call is a rough fit, not a confirmed value. Activity calls are given as the source filed them. Unless noted, the call rests on the fitted dose curve; in most records, active means well fitted curve in the direction sought with a large enough effect in the repeat runs; inconclusive means weak or mixed curves; inactive means no such curve, though single readings can be large; an effect the other way counts as inactive or inconclusive.

How the values were obtained:
[1] = biological target: Progesterone receptor (Homo sapiens) (UniProt P06401); assay: qHTS assay to identify small molecule agonists of the progesterone receptor (PR) signaling pathway (AID 1346784; calls by dose curve; further: nearly all actives have a fitted effect of over 30% in size; on activation: on the % scale 0 is the no-effect control and ±100 the full control effect); conditions: PR-UAS-bla HEK293T, beta-lactamase FRET ratio, 16 h; activation: at 92.4 µM (top of the series) unless noted
Chain of UniProt P06401 (P06401 whole entry, looked up): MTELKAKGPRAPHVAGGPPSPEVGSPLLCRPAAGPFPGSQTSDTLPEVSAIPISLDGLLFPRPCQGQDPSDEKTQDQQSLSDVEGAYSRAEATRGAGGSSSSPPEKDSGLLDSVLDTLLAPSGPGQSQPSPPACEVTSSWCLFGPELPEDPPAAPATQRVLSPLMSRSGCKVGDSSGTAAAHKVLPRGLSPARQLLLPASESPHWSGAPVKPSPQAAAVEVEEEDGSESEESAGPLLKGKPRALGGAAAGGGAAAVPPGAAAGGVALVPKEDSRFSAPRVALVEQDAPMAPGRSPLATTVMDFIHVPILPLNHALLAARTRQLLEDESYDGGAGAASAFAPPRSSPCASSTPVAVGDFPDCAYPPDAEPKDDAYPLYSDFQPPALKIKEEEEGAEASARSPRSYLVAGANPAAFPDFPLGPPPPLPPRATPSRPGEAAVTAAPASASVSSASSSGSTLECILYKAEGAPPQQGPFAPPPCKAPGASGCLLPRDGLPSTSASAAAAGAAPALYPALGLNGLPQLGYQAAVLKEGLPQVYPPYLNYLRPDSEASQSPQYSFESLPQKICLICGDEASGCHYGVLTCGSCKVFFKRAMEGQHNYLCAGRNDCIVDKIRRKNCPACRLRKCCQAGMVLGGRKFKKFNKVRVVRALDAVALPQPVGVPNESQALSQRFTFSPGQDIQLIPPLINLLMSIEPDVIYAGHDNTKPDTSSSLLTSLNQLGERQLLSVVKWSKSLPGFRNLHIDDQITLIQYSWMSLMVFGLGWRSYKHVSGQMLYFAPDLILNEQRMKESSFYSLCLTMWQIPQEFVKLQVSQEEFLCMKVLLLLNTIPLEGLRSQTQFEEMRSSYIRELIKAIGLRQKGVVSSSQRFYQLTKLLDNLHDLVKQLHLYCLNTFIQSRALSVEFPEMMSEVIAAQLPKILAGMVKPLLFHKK
In short: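 PR-UAS-bla HEK 293T cells (beta-lactamase reporter under UAS) in 2% charcoal-stripped FBS, dosed with 23 nL compound after 6 hr, incubated 16hr at 37C. LiveBLAzer B/G FRET substrate added, fluorescence read after 2 hours.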

[2] = biological target: Progesterone receptor (Homo sapiens) (UniProt P06401); assay: qHTS assay to identify small molecule antagonists of the progesterone receptor (PR) signaling pathway (AID 1346795; active means well fitted inhibition curve with a large enough effect in the signal ratio in the repeat runs, not every such curve was filed as active; inconclusive means weak or mixed curves; the % refers to the signal ratio; on activity change, negative = inhibition: on the % scale 0 is the no-effect control and ±100 the full control effect); conditions: PR-UAS-bla HEK293T, beta-lactamase FRET ratio, 16 h; activity change, negative = inhibition: at 92.4 µM (top of the series) unless noted
In short: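 PR-UAS-bla HEK293T cells with beta-lactamase reporter under UAS control, in 2% charcoal-stripped FBS, treated with compounds plus 1 nM promegestone (R5020, final) for 16 hr at 37C. Read-out: FRET beta-lactamase substrate fluorescence after 2 hr at room temperature.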

[3] = qHTS assay to identify small molecule agonists of the TGF-beta/Smad signaling pathway (AID 1346859; active means well fitted activation curve with a large enough effect in the signal ratio in the repeat runs, not every such curve was filed as active; inconclusive means weak or mixed curves; the % refers to the signal ratio; on activation: on the % scale 0 is the no-effect control and ±100 the full control effect); conditions: SBE-bla HEK293T, TGF-beta/Smad beta-lactamase reporter, 5 h; activation: at 76.8 µM (top of the series)
In short: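 SBE-bla HEK293T cells plated overnight, then compound exposure for 5 h at 37 C. Beta-lactamase reporter read with LiveBLAzer B/G FRET substrate after 2 h at room temperature, fluorescence at 405 nm excitation, 460/530 nm emission.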

[4] = qHTS assay to identify small molecule antagonists of the TGF-beta/Smad signaling pathway (AID 1346924; active means well fitted inhibition curve with a large enough effect in the signal ratio in the repeat runs, not every such curve was filed as active; inconclusive means weak or mixed curves; the % refers to the signal ratio); conditions: SBE-bla HEK293T, TGF-beta/Smad reporter, beta-lactamase ratio; activity, negative = inhibition: at 76.8 µM (top of the series) unless noted
In short: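 SBE-bla HEK 293T cells were plated overnight, then received compound in DMSO plus TGF-beta1 (added as a 0.25 ng/mL solution) and were incubated 5 h at 37 C. Beta-lactamase reporter activity was read after 2 h at room temperature with LiveBLAzer B/G FRET substrate (ex 405, em 460/530 nm).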

[5] = qHTS assay to identify small molecule antagonists of the progesterone receptor (PR) signaling pathway - cell viability counter screen (AID 1346798); further: nearly all actives have a fitted effect of over 50% in size
In short: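 PR-UAS-bla HEK293T cells, 3,000/well in 2% charcoal-stripped FBS medium, dosed with compounds plus R5020 agonist and incubated 16 h at 37C. Viability then measured in the same wells by CellTiter-Glo luminescence after 30 min at RT.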

[6] = qHTS assay to identify small molecule agonists of the progesterone receptor (PR) signaling pathway - cell viability counter screen (AID 1346799; calls by dose curve; further: nearly all actives have a fitted effect of over 45% in size)
In short: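 Counter screen in the PR-UAS-bla HEK293T wells (2% charcoal-stripped FBS, 16 h compound exposure at 37 C) after the bla read. CellTiter-Glo added, 30 min at room temperature, luminescence read as cell viability.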

[7] = qHTS assay to identify small molecule antagonists of the TGF-beta/Smad signaling pathway - cell viability counter screen (AID 1346824); further: nearly all actives have a fitted effect of over 50% in size
In short: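 SBE-bla HEK 293T cells were plated overnight at 37 C, then given compounds in DMSO plus TGF-beta1 (added as 0.25 ng/mL solution) for 5 hr. After the bla read, CellTiter-Glo was added to the same wells and luminescence read after 30 min at room temperature.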

[8] = qHTS assay to identify small molecule agonists of the TGF-beta/Smad signaling pathway - cell viability counter screen (AID 1346829); further: nearly all actives have a fitted effect of over 45% in size
In short: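 Same-well cytotoxicity: CellTiter-Glo added after the 2 hr room-temperature beta-lactamase substrate step, luminescence measured 30 min later; cells had 5 hr of compound at 37 C.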

[9] = biological target: Thyrotropin-releasing hormone receptor (Homo sapiens) (UniProt P34981); assay: qHTS assay to identify small molecule antagonists of the thyrotropin-releasing hormone receptor (TRHR) signaling pathway (AID 1346877; active means well fitted inhibition curve with a large enough effect in the repeat runs, not every such curve was filed as active; inconclusive means weak or mixed curves)
Chain of UniProt P34981 (P34981 whole entry, looked up): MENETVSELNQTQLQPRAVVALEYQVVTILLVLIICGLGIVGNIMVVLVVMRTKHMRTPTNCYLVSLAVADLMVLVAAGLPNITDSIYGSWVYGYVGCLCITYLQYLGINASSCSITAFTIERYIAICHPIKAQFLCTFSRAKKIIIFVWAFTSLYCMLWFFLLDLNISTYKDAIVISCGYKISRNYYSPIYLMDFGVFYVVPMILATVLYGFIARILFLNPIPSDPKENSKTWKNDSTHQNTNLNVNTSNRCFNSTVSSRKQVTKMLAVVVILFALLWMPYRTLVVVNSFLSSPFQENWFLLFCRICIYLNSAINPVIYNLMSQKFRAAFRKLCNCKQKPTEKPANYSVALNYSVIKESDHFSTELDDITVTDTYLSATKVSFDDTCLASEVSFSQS
In short: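 Cells (TRHR-HEK293) are plated and kept 18 h at 37 °C/5% CO2. A calcium-sensitive dye is added for 2 h, compound follows for 5 min at room temperature, and TRH is then given at 1 nM final.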

[10] = Human pregnane X receptor (PXR) small molecule agonists, qHTS cell viability counter screen (AID 1346977); further: nearly all actives have a fitted effect of over 50% in size
In short: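 PXR-Luc HepG2 cells (2,000/well, 5% charcoal-stripped FBS) preincubated 5 hr, then exposed to compounds 24 hr at 37 C. Viability read in the same wells by CellTiter-Fluor fluorescence, reagent added at 23 hr, 1 hr incubation.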
Potency means the concentration at half of the fitted maximal effect; tags describe the fitted curve by direction and shape or compound fluorescence and quenching.

Cc1ccc2nc(-c3ccc(N)cc3)sc2c1S(=O)(=O)O
activation [1]: inconclusive: 6.5% [at 42.5 µM] | activity change, negative = inhibition [2]: inconclusive: 11% [at 42.5 µM] | Potency [3]: inconclusive: 24.2 µM [activator, partial curve] | activity, negative = inhibition [4]: inconclusive: 7.64% [at 35.3 µM]

COc1ccc(CCN2CCC(Nc3nc4ccccc4n3Cc3ccc(F)cc3)CC2)cc1
Potency [1]: inconclusive: 55.7 µM [cytotoxic] | Potency [5]: active: 17.6 µM and active: 23.7 µM | Potency [6]: active: 14 µM and inconclusive: 26.6 µM [cytotoxic, partial curve, poor fit] | Potency [7]: active: 39.8 µM and inconclusive: 26.8 µM [cytotoxic] | Potency [8]: active: 44.6 µM and inconclusive: 26.8 µM [cytotoxic, single point] | Potency [3]: inconclusive: 50.1 µM [single point] and inactive | Potency [9]: inconclusive: 12.3 µM [inhibitor, partial curve, poor fit]

C=C(c1ccc(C(=O)O)cc1)c1cc2c(cc1C)C(C)(C)CCC2(C)C
Potency [1]: inconclusive: 68.6 µM [cytotoxic, single point] and inconclusive: 33.5 µM [cytotoxic, single point] | Potency [5]: active: 54.5 µM and inconclusive: 33.5 µM [cytotoxic, single point] | Potency [6]: inconclusive: 17.2 µM [cytotoxic, partial curve, poor fit] and inconclusive: 16.8 µM [cytotoxic, partial curve, poor fit] | Potency [7]: inconclusive: 61.6 µM [cytotoxic, single point] | Potency [8]: inconclusive: 61.6 µM [cytotoxic, single point]

CC(C)(C)c1cc(/C=C2\SC(=N)NC2=O)cc(C(C)(C)C)c1O
activation [1]: inconclusive: -13.7% | Potency [2]: active: 61.1 µM | Potency [5]: inconclusive: 77 µM [cytotoxic, single point] | Potency [6]: inconclusive: 77 µM [cytotoxic, single point] | activity, negative = inhibition [4]: inconclusive: -11.4%

Brc1ccccc1-c1ccccc1
activation [1]: inconclusive: -0.851% | activity change, negative = inhibition [2]: inconclusive: -4.98% | Potency [5]: inconclusive: 29 µM | Potency [6]: inconclusive: 15.4 µM [cytotoxic, partial curve, poor fit] | Potency [10]: inactive

Oc1ccc2cc(SSc3ccc4cc(O)ccc4c3)ccc2c1
Potency [1]: inconclusive: 68.7 µM [cytotoxic, single point] and inconclusive: 68.6 µM [cytotoxic, single point] | Potency [2]: active: 30.7 µM and active: 48.6 µM | activity, negative = inhibition [4]: inconclusive: -19.3% and inconclusive: -6.04%

BrC1CCC(Br)C(Br)CCC(Br)C(Br)CCC1Br (configuration not stated)
activation [1]: inconclusive: -5.3% | Potency [5]: active: 54.3 µM and active: 51.7 µM | Potency [6]: active: 30.5 µM and active: 41.1 µM | Potency [7]: inconclusive: 38.7 µM [cytotoxic, partial curve, poor fit] | Potency [8]: inconclusive: 43.5 µM [cytotoxic, partial curve] and inconclusive: 16.5 µM [cytotoxic, partial curve, poor fit] | Potency [3]: inconclusive: 54.7 µM [rising, single point] and inconclusive: 41.4 µM [rising, single point]

C=C1C(C)(C)[C@@]2(Cl)C(Cl)[C@]1(Cl)C(Cl)(Cl)C2(Cl)Cl (some centres not stated)
Potency [1]: inconclusive: 67.3 µM [cytotoxic, single point] | Potency [2]: inconclusive: 7.56 µM | Potency [5]: active: 67.3 µM | Potency [6]: inconclusive: 75.6 µM [cytotoxic, single point] | Potency [4]: inconclusive: 60.5 µM [single point]

COc1ccccc1OCCNCC(O)COc1cccc2[nH]c3ccccc3c12 (configuration not stated)
Potency [1]: inconclusive: 23.7 µM [cytotoxic, partial curve] | Potency [2]: inconclusive: 29.8 µM | Potency [5]: inconclusive: 29.8 µM [cytotoxic, single point] | Potency [6]: active: 15 µM | activity, negative = inhibition [4]: inconclusive: -5.28% [at 35.3 µM] | Potency [10]: active: 23.7 µM

CCN(CC)c1ccc2c(C)cc(=O)oc2c1
Potency [1]: active: 30.9 µM and active: 34.4 µM | Potency [2]: inconclusive: 27.5 µM [rising, partial curve] and inconclusive: 34.4 µM [rising, partial curve] | Potency [3]: inconclusive: 49.4 µM [fluorescent, partial curve] and inconclusive: 24.5 µM [fluorescent, partial curve] | Potency [4]: inconclusive: 49.4 µM [fluorescent, partial curve] and inconclusive: 49 µM [fluorescent, partial curve]

CCCCCCCCCCCCCOP(=O)(O)O
Potency [1]: inconclusive: 54.5 µM [fluorescent, partial curve, poor fit] | Potency [2]: inconclusive: 48.6 µM [rising, partial curve] | Potency [5]: inconclusive: 54.5 µM [cytotoxic, partial curve] | Potency [7]: inactive

O=C(CC(C(=O)OC1CCCCC1)S(=O)(=O)O)OC1CCCCC1 (configuration not stated)
Potency [1]: inactive | Potency [2]: inconclusive: 68.9 µM [rising, single point] | Potency [5]: inconclusive: 68.9 µM [cytotoxic, single point] | Potency [3]: inconclusive: 60.8 µM [falling, partial curve, poor fit]

CCCCCCCCCCCCc1ccccc1O
Potency [1]: inconclusive: 30.2 µM [cytotoxic] and inconclusive: 27.3 µM [cytotoxic] | Potency [5]: inconclusive: 67.7 µM [cytotoxic, single point] and active: 38.6 µM | Potency [6]: active: 53.8 µM and active: 30.6 µM | Potency [7]: active: 54.2 µM and active: 54.9 µM | Potency [8]: inconclusive: 34.2 µM [cytotoxic, partial curve] and active: 49 µM | Potency [4]: inconclusive: 54.9 µM [cytotoxic] | Potency [10]: active: 47.9 µM and active: 30.6 µM

Nc1ccc(N)c2ccccc12
Potency [1]: inconclusive: 54.4 µM [falling, partial curve, poor fit] | Potency [2]: active: 54.4 µM | Potency [5]: inconclusive: 9.68 µM [rising, partial curve, poor fit] | Potency [7]: inconclusive: 54.9 µM [cytotoxic, single point] | Potency [8]: inconclusive: 54.9 µM [cytotoxic, single point] | Potency [3]: inconclusive: 61.6 µM [rising, single point]

Cc1cc(F)ccc1-c1cc(N2CC[C@@H](O)[C@H]2CO)ncc1N(C)C(=O)C(C)(C)c1cc(C(F)(F)F)cc(C(F)(F)F)c1
activation [1]: inconclusive: 3.81% | Potency [2]: inconclusive: 17 µM [rising, partial curve] | Potency [6]: inconclusive: 60.2 µM [rising, single point] | Potency [3]: inconclusive: 38.3 µM [rising, partial curve] | Potency [10]: active: 38 µM

N#CSCSc1nc2ccccc2s1
activation [1]: inconclusive: -0.275% | Potency [2]: inconclusive: 68.6 µM | Potency [5]: inconclusive: 17.2 µM [cytotoxic, partial curve] | Potency [7]: inconclusive: 49 µM [cytotoxic, single point] | Potency [8]: inconclusive: 8.71 µM [cytotoxic, partial curve, poor fit] | Potency [9]: inconclusive: 23.9 µM [inhibitor, partial curve] | Potency [10]: active: 19.3 µM

CCCCCCC(C)Nc1ccc(Nc2ccccc2)cc1 (configuration not stated)
activation [1]: inconclusive: -15.5% | Potency [2]: active: 48.6 µM | Potency [5]: inconclusive: 48.6 µM [cytotoxic, single point] | Potency [6]: inconclusive: 68.6 µM [cytotoxic, single point] | activity, negative = inhibition [4]: inconclusive: -23.8% | Potency [10]: inconclusive: 68.6 µM [cytotoxic, single point]

CC(C)(C)c1cccc(C(C)(C)C)c1O
Potency [1]: inconclusive: 67.1 µM [activator, single point] | activity change, negative = inhibition [2]: inconclusive: 7.8% | Potency [6]: inconclusive: 37.7 µM [cytotoxic, partial curve] and inconclusive: 43.3 µM [cytotoxic, partial curve, poor fit] | Potency [10]: inconclusive: 67.1 µM [cytotoxic, single point]

Oc1c(Br)cc(Br)c2cccnc12
Potency [1]: inconclusive: 2.98 µM [cytotoxic, full curve] | Potency [2]: active: 2.66 µM | Potency [5]: inconclusive: 4.22 µM [cytotoxic, partial curve] | Potency [10]: inconclusive: 5.96 µM [cytotoxic, full curve]

c1ccc(-c2ccc(C(c3ccccc3)n3ccnc3)cc2)cc1 (configuration not stated)
activation [1]: inconclusive: -3.68% [at 42.5 µM] | Potency [2]: active: 5.96 µM | Potency [5]: active: 9.44 µM | Potency [6]: active: 16.8 µM | activity, negative = inhibition [4]: inconclusive: -0.464% [at 35.3 µM] | Potency [10]: inconclusive: 33.5 µM [cytotoxic, single point]

c1ccc2c(c1)-c1cccc3c1c-2cc1ccccc13
Potency [1]: inconclusive: 26.7 µM [activator, full curve] and inconclusive: 48.6 µM [fluorescent, partial curve] | Potency [2]: inconclusive: 15 µM [rising, full curve] and inconclusive: 13.7 µM [rising, full curve] | Potency [7]: inconclusive: 12 µM [cytotoxic, single point] | Potency [3]: inconclusive: 53.7 µM [fluorescent] and inconclusive: 54.9 µM [fluorescent]
